# Whole data set: some 33,000 sequences, median “E-score (-0.5 to 0.5)” near -0.011, cut for the highest 2% near 0.28. Some of the results follow.
# Molecular target: T1, Gcr1 (UniProt P07261)
# T1 sequence: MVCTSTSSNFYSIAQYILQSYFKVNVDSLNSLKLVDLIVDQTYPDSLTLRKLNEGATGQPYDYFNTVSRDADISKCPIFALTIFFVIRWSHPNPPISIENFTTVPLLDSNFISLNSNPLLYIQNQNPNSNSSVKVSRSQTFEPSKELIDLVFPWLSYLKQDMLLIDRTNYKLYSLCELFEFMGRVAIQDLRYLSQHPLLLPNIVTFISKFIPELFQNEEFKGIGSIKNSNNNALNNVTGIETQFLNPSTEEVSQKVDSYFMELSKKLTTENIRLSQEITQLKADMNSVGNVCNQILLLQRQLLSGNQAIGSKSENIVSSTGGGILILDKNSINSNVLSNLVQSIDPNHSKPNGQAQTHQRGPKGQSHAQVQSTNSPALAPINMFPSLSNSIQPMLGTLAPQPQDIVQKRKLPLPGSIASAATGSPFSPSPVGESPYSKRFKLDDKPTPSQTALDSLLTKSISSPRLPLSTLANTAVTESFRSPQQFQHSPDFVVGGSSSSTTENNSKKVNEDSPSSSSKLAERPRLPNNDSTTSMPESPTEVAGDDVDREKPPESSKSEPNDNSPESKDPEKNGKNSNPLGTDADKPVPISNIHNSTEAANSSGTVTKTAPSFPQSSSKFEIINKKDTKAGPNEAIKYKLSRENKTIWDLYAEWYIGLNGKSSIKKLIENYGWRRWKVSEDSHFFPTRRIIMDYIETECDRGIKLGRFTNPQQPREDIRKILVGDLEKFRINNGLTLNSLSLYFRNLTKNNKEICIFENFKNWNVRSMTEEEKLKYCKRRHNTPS
# Assay: PBM E-score (8-mer binding enrichment) (E-score (-0.5 to 0.5)); higher = stronger / more preferred TF binding; most listed sequences are background and not binding sites
# Settings: protein concentration: 100 nM; construct: GST-full length
# Procedure, shortened: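 Yeast transcription factors, full-length or as DNA-binding domains, were expressed with a GST tag using PURExpress in vitro transcription/translation. At about 100-200 nM they were applied to universal all-10-mer Agilent arrays, double-stranded by primer extension on fresh or once-stripped slides. Fluorescent anti-GST detected bound protein, and masliner normalised the scans. E-scores for ungapped eight-base words, pooled with reverse complements, came from the Universal PBM Analysis Suite.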
row,Sequence,PBM E-score
1,ATACTCAC,-0.197
2,CGTACATC,-0.0193
3,ATGAGGGG,-0.0333
4,GAGCATGC,-0.134
5,AGCATATA,-0.0111
6,AGCGGCGG,0.143
7,TTATATAA,0.0687
8,CATCATTA,0.195
9,CACAATGG,0.0423
10,ACATGAAG,0.142
11,CCTTGATC,-0.14
12,CGCCCCAG,-0.00627
13,AACCGCAC,-0.0767
14,CACCGAGA,-0.00934
15,CCAACTGC,0.094
16,AAGCGGGA,0.216
17,ACAGCGGA,0.0225
18,AGATACAA,0.183
19,CTCTACAA,0.194
20,GGGTCAGA,-0.193
21,CTAATCAG,0.162
22,ACGGGGCT,-0.0934
23,CAGCACAA,-0.102
24,GTTGATTA,-0.0945
25,ACAAGAAC,0.0846

row,Sequence,PBM E-score
1,GAGGTAAC,-0.00063
2,TATCTACA,-0.167
3,CCGCCATC,-0.0909
4,AGAACTTG,0.111
5,AATGGCTG,-0.0534
6,GTAGCTTA,0.0347
7,CATCCTCC,-0.00978
8,CGCGGCCA,-0.1
9,CCGGCCTA,-0.115
10,CTTCTATC,0.133
11,AAGCCAGC,0.0871
12,ACCACTCA,-0.067
13,CCGCATTC,0.233
14,CCTCGCCC,-0.167
15,ATACTGTG,-0.0587
16,ATTACTCG,0.0746
17,ATCATTAC,-0.018
18,ATAGTCGC,0.0903
19,CAACCCTA,0.0211
20,CGTGGCTC,-0.256
21,ATGTGAGA,0.019
22,AAATCTCG,-0.0544
23,TCAGGGGA,0.0968
24,CGGATTTC,-0.122
25,AGAGTTTC,-0.195

row,Sequence,PBM E-score
1,GAACCCTA,0.126
2,CAGGAGTA,-0.0327
3,TCTGTCCA,0.12
4,AGTCCCAT,-0.103
5,GGTTCGAA,0.0394
6,CAGTGAGG,-0.176
7,CCTCTCAA,0.0927
8,CCCCGCAA,-0.0327
9,CCACCTTC,-0.0503
10,AGGCGTAG,-0.134
11,CCCGACCA,-0.0699
12,CGCTCGGC,-0.135
13,CAGTGGAG,0.168
14,CGGCTTCA,0.0352
15,ATGTGCGC,-0.0289
16,CACTTGCG,0.0426
17,ACAAGCAG,0.131
18,CACAAAGC,0.0724
19,AATAGAAA,0.0891
20,CAATTGCA,-0.0472
21,GATGAGCA,-0.164
22,ACGGACGT,0.00056
23,GTCCGCAC,-0.0732
24,TCTCGAAA,-0.0613
25,CGGGCTAG,0.0818

row,Sequence,PBM E-score
1,GGTGGAAC,0.0244
2,AACAGCGG,0.0964
3,ACGTTACA,-0.159
4,TGCGGAAA,-0.0134
5,AGTCGCGG,-0.123
6,CACTAGAG,0.0287
7,ACTGTTCC,-0.148
8,GAGCCTCC,0.0962
9,TAGATGCA,0.0235
10,ACATATCC,-0.186
11,AAGTTAAT,0.086
12,AGCTTTGC,-0.283
13,AAGTCCCG,-0.262
14,AAATTGTC,-0.0294
15,ACGAGAAA,-0.0307
16,AATTGTTA,0.116
17,CAATAAAC,0.0519
18,AACCCCGC,0.018
19,CAAAAACA,0.153
20,AATGCTCG,0.153
21,ACCCAACT,-0.0106
22,ACGATATC,-0.142
23,GATTGAAC,-0.0295
24,CCCTTCCA,-0.0993
25,AACGAATC,0.0837

row,Sequence,PBM E-score
1,TACATGCA,0.0914
2,ATTGGTAC,0.212
3,CCGTGTTC,-0.00032
4,TACTCAAA,0.0812
5,CCAGCCTA,-0.147
6,ACCGATCA,-0.0106
7,ACTTTGCA,-0.0113
8,TGTATCAA,0.062
9,ACCCGAGC,0.173
10,AGAACTAT,0.0119
11,AGTTATCA,0.0295
12,CGCCTCCG,-0.0156
13,GAGCTATA,-0.0836
14,ATTCTCTG,0.00581
15,ATGTTATC,-0.0771
16,CGGGAAGA,0.0397
17,AGGCGAGG,-0.159
18,ACAAACTG,-0.204
19,ATACCGGG,0.208
20,CTACTGAC,-0.12
21,GGTGTCAC,-0.0215
22,GCCAGACA,-0.00513
23,AGTGCTGG,-0.0595
24,ATTCAAAT,0.137
25,CTCGCTAA,-0.195

row,Sequence,PBM E-score
1,AGATCGCT,-0.203
2,AGCAATAA,-0.0215
3,GACTTGCA,-0.271
4,AACGGAAC,0.0821
5,TCGACCCA,-0.0748
6,ATGCATGC,-0.387
7,AAAAACAG,0.151
8,AGGCAAAT,-0.0661
9,CCTGTTGA,0.109
10,AGAGTACA,-0.122
11,ACCCCGCA,0.00992
12,AGACACCA,0.158
13,TAAGATCA,0.157
14,GAATATGC,-0.113
15,GCAAGCCA,-0.146
16,GAGCGTTA,-0.0907
17,CTACGGAC,-0.17
18,GATACGGA,0.142
19,ATTGGCAC,0.115
20,ATTACGGG,0.0709
21,AGTTGTAT,0.178
22,ATCGTGCG,-0.0151
23,CGCCTAAG,0.0636
24,GAACTCCA,-0.0129
25,TCCACAGA,0.114

row,Sequence,PBM E-score
1,CGGAGACG,-0.0596
2,CGCCACTA,0.276
3,CGAACTGA,-0.195
4,AATTATGA,-0.0204
5,GCAGATAA,-0.0796
6,CCAAGTCG,-0.0633
7,GAGACAGC,-0.132
8,CCCACCTC,-0.0577
9,AGCTTACG,0.0302
10,TGCCCGCA,0.0917
11,ATATACGC,0.243
12,CGAAGTCC,0.00686
13,GTATAAGA,0.113
14,GACCCTCA,-0.192
15,GCCGCTGA,0.166
16,AATGCTGA,0.00038
17,CCCTTAGG,-0.276
18,GTGAAAAA,0.216
19,AGCGTTAG,-0.032
20,ATGAATAG,0.0669
21,AGAGGAAC,0.177
22,CTCCTCCA,0.0338
